From PubChem BioAssay AID1963576 (National Center for Advancing Translational Sciences (NCATS), 2024)
The campaign covered roughly 46,000 compounds. About 60 (0.1%) were called active. Inconclusive results (about 3%) are left out. The call rests on the fitted dose curve; in most records, active means well fitted inhibition curve with a large enough effect; inconclusive means small, poorly fitted or top-dose-only effect; inactive means no such curve, though single readings can be large or run the other way. The list shows a part of the results.

Assay: Primary qHTS assay for Inhibitors of ovarian cancer metastasis using an organotypic tumor microenvironment (TME) model. Further: nearly all actives have a fitted effect of over 65% in size.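 On activity change, negative = inhibition: plate controls were DMSO wells for no effect and tomatine positive control wells for full effect.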
Details: SKOV3ip1-GFP adhesion/invasion on 3D omental model, fluorescence; series mostly up to 45.8 µM; activity change, negative = inhibition: at the top concentration
Summary of the method: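 A 3D layer of primary human omental fibroblasts, mesothelial cells, fibronectin and collagen I, grown 48 hr, received SKOV3ip1-GFP cells in serum-free medium plus compounds at 0.36-46 umol/L. After 2 hr RT and 16 hr 37 C, fixed adherent GFP cells were counted; normalized to DMSO and tomatine.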

Activity change, negative = inhibition, inactive:
CCOc1ccccc1NC(=O)N1CCN(S(=O)(=O)c2ccc3c(ccn3C)c2)CC1 8%
COc1cc(NC(=O)Cn2ccn(-c3cc(C)cc(C)c3)c(=O)c2=O)cc(OC)c1 10%
COc1ccc(N2CCN(S(=O)(=O)CCNC(=O)c3cc(=O)c4ccccc4o3)CC2)cc1 -0.241%
CN(C)c1oc(-c2ccc(COc3ccccc3)o2)nc1C#N -14.3%
COc1ccc2c(c1)CCc1sc(NC(=O)c3ccc(Br)cc3)nc1-2 4.47%
C[C@@H](c1ncncc1F)[C@](O)(Cn1cncn1)c1ccc(F)cc1F 2.59%
CC(C)(C)c1ccc(Oc2nc3ccccn3c(=O)c2/C=C(\C#N)c2nc3ccccc3s2)cc1 13.1%
Cc1ccc(NC(=O)C(=O)NCC(c2ccc3c(c2)OCO3)N2CCN(C)CC2)c(C)c1 (stereo not given) -13.3%
CC(=O)Nc1cccc(Nc2nc3ccccc3n3c(C)nnc23)c1 -7.54%
CCOC(=O)N1CCC(NC(=O)c2cnn(-c3ccc(C)cc3C)c2C2CCN(C(=O)OC(C)(C)C)CC2)CC1 -3.77%
CCOc1ccccc1N(C)C(=O)Cn1nc(Cc2ccncc2)c2ccccc2c1=O -24.2%
CC(=O)c1nn(-c2ccc(OC(F)(F)F)cc2)nc1Nc1ccccc1 -4.2%
O=C(CN1CCCN(Cc2ccc(F)cc2)S1(=O)=O)Nc1ccc2c(c1)OCCO2 -2.96%
CCOC(=O)c1c(NC(=O)CCCOc2ccc(C(C)(C)C)cc2)sc2c1CCCC2 1.96%
COc1ccc(OC)c(NC(=O)c2cnc(N3CCCCC3)c3ccccc23)c1 -19.2%
CCC(=O)N1CCc2cc(S(=O)(=O)NCCC(=O)NCc3ccc(C)cc3)ccc21 -9.98%
COC(=O)c1ccc(NS(=O)(=O)c2ccc3[nH]c4c(c3c2)CCCC4)cc1 6.14%
CCOC(=O)C1CCCN(S(=O)(=O)c2cc(Br)cc3c2N(C(C)=O)CC3)C1 (stereo not given) 1.93%
CCCn1c(SCC(O)c2ccccc2)nc2ccccc21 (stereo not given) -4.76%
COc1cccc(CNC(=O)CCCn2ncn3c(cc4occc43)c2=O)c1 -4.83%
CN[C@@H](C)[C@H]1[C@H](O)C[C@@]2(C)[C@@H]3CC[C@H]4C(C)(C)[C@@H](NC)CC[C@@]45C[C@@]35CC[C@]12C -14.6%
O=C(NCCc1ccc(Cl)cc1)c1ccc2c(c1)N(Cc1ccc(F)cc1)C(=O)CS2 -16.1%
COc1ccc(-c2cc3c(=O)n(CC(=O)Nc4cc(F)ccc4F)ccn3n2)cc1OC -16.3%
Cc1nn(-c2ccccc2)c2sc(C(=O)Nc3ccc(Br)cc3)cc12 -3.22%
CCCCN(Cc1cc2ccccc2[nH]c1=O)C(=O)c1cccc(Cl)c1 -9.46%
COc1ccc(NC(=O)CCS(=O)(=O)c2ccc3c(c2)oc(=O)n3C)cc1OC -4.15%
O=C(Oc1ccc(F)cc1)c1nc(SCc2ccc(F)cc2)ncc1Cl -12.5%
Cc1ccc(C(=O)NCC(c2ccco2)S(=O)(=O)c2cccs2)cc1C (stereo not given) 6.68%
Cc1ccc(-c2noc(-c3ccccc3NC(=O)C3CC(=O)N(c4ccc(C)cc4)C3)n2)cc1 (stereo not given) 2.74%
Oc1c(C(c2ccccc2F)N2CCN(c3ccccc3F)CC2)sc2nc(-c3ccco3)nn12 (stereo not given) -1.44%
Cc1ccccc1N1CCN(S(=O)(=O)c2ccccc2)CC1 1.27%
CCOC(=O)CSC1=Nc2ccccc2C2=NC(CCC(=O)NCc3ccc(OC)cc3)C(=O)N12 (stereo not given) 6.83%
Cc1cc(OCCn2c(CCNC(=O)C3CCCCC3)nc3ccccc32)ccc1Cl -13.7%
Cc1ccc(-c2nc(SCC(=O)NCC3CCCO3)c3c(=O)n(C)c(=O)n(C)c3n2)cc1 (stereo not given) 2.79%
Cc1cc(C)c(NC(=O)CSc2nccn2-c2cccc(Cl)c2)c(C)c1 -0.374%
COc1ccc(CNC(=O)CCC2N=C3c4ccccc4N=C(SCc4ccccc4F)N3C2=O)cc1 (stereo not given) 3.46%
CCCc1cc(N2CCN(c3cccc(C)c3C)CC2)n2cnnc2n1 -19.8%
CN(C)CC[C@H](c1ccc(Cl)cc1)c1ccccn1 -24.1%
COc1ccccc1Cn1ccn(Cc2ccc(C)cc2)c(=O)c1=O 5.01%
COc1ccc(C)cc1NS(=O)(=O)c1ccc2c3c(cccc13)C(=O)N2 -26.2%
O=C(NC1CCCC1)c1ccc2c(=O)n(Cc3ccccc3)c(SCc3cccc([N+](=O)[O-])c3)nc2c1 7.72%
Cc1ccccc1NC(=O)CSc1nc(-c2ccccc2)cn1-c1ccccc1F -27.5%
COCCNC(=O)CSc1nc2cc3c(cc2c(=O)n1CCCC(=O)NCc1ccc2c(c1)OCO2)OCO3 3.73%
Cc1ccccc1OCc1nc2c3cnn(-c4ccccc4F)c3ncn2n1 -9.54%
CCOC(=O)C(Cc1ccccc1)NC(=O)CCc1c(C)nc2nc(C)nn2c1C (stereo not given) -9.62%
CN(C)CCCNC(=O)c1ccc(-c2cc(O)c3ncccc3c2)cc1 7.13%
CCOC(=O)Cn1c(=O)cc(C(F)(F)C(F)(F)F)c2c(C)nn(CC)c21 -6.03%
Cc1ccc(Cl)cc1N1CCN(C(=O)Cn2c(-c3cccs3)cc3cc(F)ccc32)CC1 4.59%
CCc1ccc(OCC(=O)Nc2cc(-c3ccc(C)cc3)no2)cc1 11.3%
COc1cccc(NC(=O)CSc2ncc3c(n2)-c2ccc(Cl)cc2N(C)S3(=O)=O)c1 6.13%
CCCNC(=O)c1ccccc1NC(=O)c1nsc2ccccc12 -3.45%
Cc1ccc(OCC(=O)Nc2ccc3nc(SCC(=O)Nc4ccc(C)cc4C)sc3c2)cc1 -8.71%
Cc1c(Cl)cccc1NC(=O)N1CCOc2ccccc21 -2.41%
CCOc1ccc(CNC(=O)C2CCN(C(=O)N3CC(CC)Oc4ccccc43)CC2)cc1 (stereo not given) -6.76%
COC(=O)c1sccc1S(=O)(=O)N1CCN(c2ccc(C)cc2C)CC1 2.82%
CCOc1ccc(CNC(=O)c2ccccc2NC(=O)c2nsc3ccccc23)cc1 13.5%
CCOc1ccccc1NC(=O)C(=O)NCCc1sc2nc(-c3ccc(OC)cc3)nn2c1C -6.06%
CCOc1ccc(CCNC(=O)c2cc3c(=O)n(C)c4ccccc4c3n2C)cc1OCC -8.56%
Cc1c(-c2ccc(Cl)cc2)c(=O)oc2c(CN3CCN(CCO)CC3)c(O)ccc12 -3.71%
Cc1ccc(Cn2c(=O)n(-c3ccc(C)cc3)c(=O)c3c2c2cc(C)ccc2n3C)cc1 0.545%
COC(=O)c1ccc(NC(=O)CN2CCN(S(=O)(=O)c3ccc(Br)cc3)CC2)cc1 -25.1%
CCOc1ccccc1NS(=O)(=O)c1ccc2[nH]c3c(c2c1)CCCCC3 5.97%
COc1ccc(S(=O)(=O)N(CC(=O)Nc2cc(C)ccc2OC)Cc2ccccc2)cc1 3.45%
CSc1cccc(NC(=O)C2CCCN(C(=O)c3cnn(-c4ccc(F)cc4)c3-n3cccc3)C2)c1 (stereo not given) 1.24%
CCOc1cc(C2c3c(oc4cc(C)cc(C)c4c3=O)C(=O)N2CCO)ccc1O (stereo not given) -3.31%
N#C/C(=C\c1cccc(F)c1)c1nc(-c2cc3c(ccc4ccccc43)oc2=O)cs1 11.9%
C[C@@H]1CC(=O)NN=C1c1ccc(NN=C(C#N)C#N)cc1 -5.16%
CN(CC(=O)Nc1ccc(Br)cc1)S(=O)(=O)c1cccc2nsnc12 -4.95%
COc1ccc(NC(=O)C2CCN(C(=O)c3sc4nc[nH]c(=O)c4c3C)CC2)cc1Cl -12.3%
COc1ccc(NC(=O)c2oc3ccccc3c2NC(=O)c2cc(C)cc(C)c2)c(OC)c1 26.6%
CN1C(=O)Cc2cc(S(=O)(=O)CCC(=O)N3CCN(c4ccc(Cl)cc4)CC3)ccc21 -4.61%

outcome, inactive:
CCN(c1ccc(C)cc1)S(=O)(=O)c1nnc(NC(=O)c2cccs2)s1
CC(C)c1ccccc1NC(=O)CSc1nnc(COc2ccccc2Cl)o1
CC(C)CN(CCNC(=O)c1cn(C)c2ccc(S(=O)(=O)N3CCCCCC3)cc2c1=O)CC(C)C
Cc1cc(C)cc(NC(=O)CSc2nc(=O)[nH]c3c2CCC3)c1
CCc1ccc(NC(=O)CC2C(=O)N(c3ccc(C)cc3)C(=O)N2C2CCCC2)cc1 (stereo not given)
CS(=O)(=O)c1cccc(-c2nnc(NC(=O)c3ccc4c(c3)OCCO4)o2)c1
Cc1ccc(NC(=O)C(Cc2ccccc2)NS(=O)(=O)c2ccc3c(c2)CCC(=O)N3)cc1 (stereo not given)
Cc1cc(C)cc(NC(=O)CSc2nc3ncccc3[nH]2)c1
CCc1nn(CCCC(=O)NCc2ccc(C)cc2)c(=O)c2cc3occc3n12
CCCSc1ncc(Cl)c(C(=O)N(Cc2cccc(Cl)c2)C2CCS(=O)(=O)C2)n1 (stereo not given)
CCOc1ccc(-c2cc(NC(=O)Nc3ccc(Cl)cc3)c(C(=O)OC)s2)cc1
COc1ccccc1C(=O)OCc1cc(=O)n2nc(-c3cccs3)sc2n1
Cc1cccc(C(c2sc3nc(-c4ccco4)nn3c2O)N2CCN(c3ccccc3F)CC2)c1 (stereo not given)
CN(C)c1ccc(-c2nc(-c3cccs3)c(-c3cccs3)[nH]2)cc1
CCc1ccc(NC(=O)[C@H](CSCc2ccccc2)N2Cc3ccccc3C2=O)cc1
O=C1COc2ccc(-c3cc(-c4ccccc4)c4c(n3)-c3ccccc3OC4)cc2N1
COc1cccc(-n2c(-c3ccccc3F)nc3c(cnn3-c3ccc(C)cc3)c2=O)c1
COc1ccc(CNC(=O)CSc2ncc3c(n2)-c2cc(Cl)ccc2N(Cc2ccccc2)S3(=O)=O)cc1
CC(C)(C)c1ccc(C(=O)NC2(C(F)(F)F)NC(=O)N(CCc3ccccc3)C2=O)cc1 (stereo not given)
Cc1ccc(NC(=O)NCCOCCn2c(=O)oc3ccccc32)cc1C
Cc1ccc(NC(=O)Nc2ccc3nc(N4CCN(C)CC4)cc(C)c3c2)cc1F
O=C(CSc1cn(CC(=O)N2CCCCC2)c2ccccc12)NCc1ccc(F)cc1
CCOC(=O)C1CCN(c2nc3ccccc3nc2Cl)CC1
Cc1cc2oc(C(=O)N(Cc3ccc(N(C)C)cc3)CC3CCCO3)c(C)c2cc1Cl (stereo not given)
